{"source": "ChEMBL document CHEMBL1157539", "about": "“Thousands of chemical starting points for antimalarial lead identification” (Nature, 2010)", "note": "Over roughly 13,000 compounds, “IFI” has its median near 4; the highest 2% begin near 17. This is one part of the list."}
{"assay": "GSK_TCMDC: Inhibition Frequency Index (IFI). The number of non-kinase HTS assays where a compound showed > 50 % inhibition, expressed as a percentage of the number of such assays in which the compound was tested (-0 is zero)", "format": "functional", "units": {"IFI": "%"}}
{"compound": "CC(C)COc1ccc(Cl)cc1Cc1ccc(-c2nc3ccc(C(F)(F)F)cc3[nH]2)o1", "IFI": 11.3}
{"compound": "O=C(Nc1ccc(OC2CCN(Cc3ccsc3)CC2)c(Cl)c1)c1cccs1", "IFI": 7.81}
{"compound": "COc1ccc(NC(=O)/C=C/c2ccccc2Cl)cc1OCCN1CCC(N2CCCC2)CC1", "IFI": 0.72}
{"compound": "O=C(Nc1ccccc1)N(Cc1ccc(-c2ccc(CNCc3ccc4c(c3)OCO4)cc2)cc1)C1CCN(Cc2ccccc2)CC1", "IFI": 2.86}
{"compound": "CCCOc1ccc(CCCON2C(N)=NC(N)=NC2(C)C)cc1", "IFI": 6.29}
{"compound": "CN1C(C)(C)CC(NC(=O)c2ccc(-c3nc4cc(Cl)c(Cl)cc4[nH]3)cc2)CC1(C)C", "IFI": 3.82}
{"compound": "Cc1cc(NC(=O)CCCN2CCN(c3cccc(Cl)c3Cl)CC2)ccc1N1CCN(C(C)C)CC1", "IFI": 12.2}
{"compound": "COc1ccc(CNCc2ccc(F)cc2)cc1-c1cccc(S(=O)(=O)NCCN2CCCC2)c1", "IFI": 11.5}
{"compound": "O=c1c2cccnc2sn1-c1ccccc1", "IFI": 15.3}
{"compound": "O=C(Nc1ccc(-c2nc3ccccc3[nH]2)cc1)c1ccc(N2CCOCC2)c([N+](=O)[O-])c1", "IFI": 2.59}
{"compound": "COc1ccc(C=CC(=O)Nc2ccc(N3CCCC3)cc2)cc1", "IFI": 2.96}
{"compound": "CCNc1cc(C(=O)N[C@@H](Cc2ccccc2)[C@H](O)CN[C@@H]2CCc3ccccc32)cc(N2CCCC2=O)c1", "IFI": 2.19}
{"compound": "Cn1nc(-c2cccc(CN[C@@H]3CCc4ccc(O)cc43)c2)c2cnc(NC3CCCC3)nc21", "IFI": 3.85}
{"compound": "COc1cccc(NC(=O)NCCNc2ccnc(Nc3ccc(F)cc3)n2)c1", "IFI": 7.69}
{"compound": "Cc1ccc(-c2ccc3c(c2)C=C(C(=O)NC2CCN(CCNC(=O)c4cccs4)CC2)CCC3)cc1", "IFI": 5.56}
{"compound": "Cc1cc(N[C@@H](Cc2ccccc2)C(=O)NCc2cccs2)nc(NCC2CCCCC2)n1", "IFI": 16.3}
{"compound": "CCc1sc(-c2ccc(C(C)(C)C)cc2)nc1C(=O)NCCCN1CCCC1=O", "IFI": -0}
{"compound": "O=C(Nc1ccc([N+](=O)[O-])cc1)Nc1cc(C(F)(F)F)ccc1F", "IFI": 8.62}
{"compound": "Cc1cc(C(=O)CN2C(=O)NC3(CCCc4ccccc43)C2=O)c(C)n1Cc1ccco1", "note": "(centres undefined)", "IFI": 1.68}
{"compound": "CC(C)(C)CCN1CCC(CNC(=O)c2cc(-c3cccc(C(F)(F)F)c3)cs2)C1", "note": "(centres undefined)", "IFI": 10}
{"compound": "O=C(Nc1ccc2c(c1)CCN2C1CCN(Cc2cc(F)cc(F)c2F)C1)c1ccco1", "note": "(centres undefined)", "IFI": -0}
{"compound": "COc1cc(CS(C)(=O)=O)ccc1Nc1nccc(-c2c(-c3cccc(NC(=O)c4c(F)cccc4F)c3)nn3ccccc23)n1", "IFI": 5.38}
{"compound": "c1cc(CN2CCC(CCN3CCCCC3)CC2)cc(-c2cccc(-c3nc4ccccc4[nH]3)c2)c1", "IFI": 5.56}
{"compound": "COc1cc2nc(N3CCC(c4ccccc4)CC3)nc(NCc3ccc(=O)[nH]c3)c2cc1OC", "IFI": 1.87}
{"compound": "Fc1ccc2[nH]c(-c3ccc(-c4ccc(CN5CCN(CCN6CCOCC6)CC5)cc4)cc3)nc2c1", "IFI": 5.63}
{"compound": "NCCNC(=O)c1ccc(-c2cnc3[nH]cc(-c4ccc(C(N)=O)cc4)c3c2)cc1", "IFI": -0}
{"compound": "O=C(/C=C/c1ccc(-c2ccccc2)cc1)NCCCCCN1CCC(c2c[nH]c3ccccc23)CC1", "IFI": 7.25}
{"compound": "Nc1nc(Cc2ccc(Cl)cc2)nc(Cc2ccc(Cl)cc2)n1", "IFI": 1.43}
{"compound": "CS(=O)(=O)NCCCNCc1cccc(-c2ccc(-c3nc4cc(C(F)(F)F)ccc4[nH]3)cc2)c1", "IFI": 2.94}
{"compound": "Nc1ccnc(N2CCC(CCOc3cc(C(F)(F)F)nc4c(C(F)(F)F)cccc34)CC2)c1", "IFI": 9.49}
{"compound": "O=S(=O)(Nc1cccc(CCN2CCCCC2CCN2CCCC2)c1)c1cccc2ccccc12", "note": "(centres undefined)", "IFI": 6.56}
{"compound": "COc1cccc(C(=O)Nc2nonc2-c2ccc(OC)c(OC)c2)c1", "IFI": 1}
{"compound": "O=C(Nc1ccccc1)N(Cc1ccc(-c2ccc(CNC3CCCC3)cc2)cc1)C1CCN(Cc2ccccc2)CC1", "IFI": 4.9}
{"compound": "S=C(NCCc1ccccc1)Nc1ccc2ncsc2c1", "IFI": 4.32}
{"compound": "COc1cc(NC(=O)/C=C/c2cc(F)cc(F)c2F)cc(OCCN2CCC(O)(c3ccccc3)CC2)c1", "IFI": 5.07}
{"compound": "O=S(=O)(Nc1ccc2nccc(N3CCNCC3)c2c1)c1ccc(-c2ccccc2)cc1", "IFI": 1.48}
{"compound": "COc1cc2nc(NCCn3ccnc3C)nc(NCCc3ccccc3)c2cc1OC", "IFI": 2.14}
{"compound": "CCOc1ccc2c(=NN=Cc3ccc(F)cc3)cc(C)[nH]c2c1", "IFI": 1.46}
{"compound": "Cc1ccc(O)c(CN2CCCC(COC(c3ccc(F)cc3)c3ccc(F)cc3)C2)c1", "note": "(centres undefined)", "IFI": 1.55}
{"compound": "c1ccc2ncc(CNCCCCCCCCNCc3cnc4ccccc4c3)cc2c1", "IFI": 3.82}
{"compound": "Cc1ccc(NC(=O)c2c(C)noc2-c2snnc2C)cc1", "IFI": 0.69}
{"compound": "O=C(/C=C/c1ccc(Cl)c(Cl)c1)NCCCCCN1CCCC(CNS(=O)(=O)c2ccc(F)cc2)C1", "note": "(centres undefined)", "IFI": 8.57}
{"compound": "O=C(Cc1cccc2ccccc12)N1CCc2cc3nccc(N4CCN5CCC[C@H]5C4)c3cc21", "IFI": 1.52}
{"compound": "CCOC(=O)c1ccc(NC(=O)N(Cc2ccc(-c3ccc(CN4CCNCC4)cc3)cc2)Cc2cccnc2)cc1", "IFI": 2.78}
